These are yes or no findings as the source states them, for the method shown. Some binding calls cover weakened binding; strength is not graded here.

Amino acid sequences for entries named in this document (tags omitted). Residues count along the entry.
UniProt P16615, residues 111-253: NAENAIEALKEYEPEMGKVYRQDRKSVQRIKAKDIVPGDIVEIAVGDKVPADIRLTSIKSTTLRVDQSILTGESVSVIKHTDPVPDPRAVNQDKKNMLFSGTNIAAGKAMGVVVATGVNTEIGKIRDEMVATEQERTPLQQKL

In this experiment the target is T1, 12xHis-SERCA2(111-253) (UniProt P16615 111-253).
T1 construct: also called recombinant SERCA2 polypeptide containing the A-domain; actuator domain of SERCA2; source: recombinant, generated by Genscript; dialysed into Biacore running buffer for SPR
As to the kind of experiment: ELISA; recombinant protein coated at 1 µg/well overnight at 4 °C, blocked with 0.5% gelatine; 50 µmol/L biotin-labelled peptide for 2 h at 37 °C; PBS-T washes; detected with anti-biotin-HRP, absorbance at 450 nm; both purified. In general terms: In an ELISA, binding on a coated surface is turned into a signal by an enzyme label.
IEKELAQQYQN (biotin on the N-terminus) [biotin-cargo(1-11)]: the binding entry is on record as “no binding (tested: 50 µmol/L)”.

As to IEKELAQQY (biotin on the N-terminus) [biotin-cargo(1-9)], the binding entry is reported as “no binding (tested: 50 µmol/L)”.

Regarding RRRRRRRRRRR (biotin on the N-terminus) [biotin-Arg11], the binding entry was “binds”. In the case of QYQNADAITLE (biotin on the N-terminus) [biotin-cargo(8-18)] it was “no binding (tested: 50 µmol/L)”; in that of RRRRRRRRR (biotin on the N-terminus) [biotin-Arg9], “binds weakly”.

The values are drawn from publication PMC10571751, “Polyarginine Cell-Penetrating Peptides Bind and Inhibit SERCA2” (Cells, 2023).
